# Measurements from a compilation of properties of binary mixtures (doi:10.1007/s10765-022-03014-z).
# The densities may have been worked out from excess volumes.
# Experiment: xn = mol fraction of the nth substance listed
# Conditions: 101 kPa
compound,measurement,setting,value
CO + CCCC[n+]1ccn(C)c1.O=S(=O)([O-])C(F)(F)F,mass density,"278.15 K, x1 = 1",805.5 kg/m3
same,mass density,"283.15 K, x1 = 1",800.9 kg/m3
same,mass density,"293.15 K, x1 = 1",791.6 kg/m3
same,mass density,"298.15 K, x1 = 1",786.9 kg/m3
same,mass density,"303.15 K, x1 = 1",782.1 kg/m3
same,mass density,"333.15 K, x1 = 1",752.8 kg/m3
CCCC[n+]1ccn(C)c1.O=S(=O)([O-])C(F)(F)F + CO,mass density,"278.15 K, x1 = 0.0034",816 kg/m3
same,mass density,"278.15 K, x1 = 0.0127",842.3 kg/m3
same,mass density,"278.15 K, x2 = 0.0851",1306 kg/m3
same,mass density,"278.15 K, x2 = 0.1553",1298.5 kg/m3
same,mass density,"278.15 K, x2 = 0.3213",1276.1 kg/m3
same,mass density,"278.15 K, x2 = 0.519",1235.1 kg/m3
same,mass density,"278.15 K, x2 = 0.6999",1169.3 kg/m3
same,mass density,"278.15 K, x2 = 0.8218",1090.1 kg/m3
same,mass density,"278.15 K, x2 = 0.8447",1069.3 kg/m3
same,mass density,"278.15 K, x2 = 0.9334",956 kg/m3
same,mass density,"278.15 K, x2 = 0.9729",878.1 kg/m3
same,mass density,"283.15 K, x1 = 0.0034",811.4 kg/m3
same,mass density,"283.15 K, x1 = 0.0069",821.7 kg/m3
same,mass density,"283.15 K, x1 = 0.0127",837.7 kg/m3
same,mass density,"283.15 K, x2 = 0",1309.8 kg/m3
same,mass density,"283.15 K, x2 = 0.1553",1294.4 kg/m3
same,mass density,"283.15 K, x2 = 0.3213",1271.9 kg/m3
same,mass density,"283.15 K, x2 = 0.519",1230.9 kg/m3
same,mass density,"283.15 K, x2 = 0.6999",1164.9 kg/m3
same,mass density,"283.15 K, x2 = 0.8218",1085.6 kg/m3
same,mass density,"283.15 K, x2 = 0.8447",1064.7 kg/m3
same,mass density,"283.15 K, x2 = 0.8739",1034 kg/m3
same,mass density,"283.15 K, x2 = 0.9334",951.5 kg/m3
same,mass density,"283.15 K, x2 = 0.9729",873.6 kg/m3
same,mass density,"293.15 K, x1 = 0.0034",802.1 kg/m3
same,mass density,"293.15 K, x1 = 0.0069",812.4 kg/m3
same,mass density,"293.15 K, x1 = 0.0127",828.4 kg/m3
same,mass density,"293.15 K, x2 = 0.0851",1293.8 kg/m3
same,mass density,"293.15 K, x2 = 0.1553",1286.3 kg/m3
same,mass density,"293.15 K, x2 = 0.3213",1263.7 kg/m3
same,mass density,"293.15 K, x2 = 0.519",1222.4 kg/m3
same,mass density,"293.15 K, x2 = 0.6999",1156.2 kg/m3
same,mass density,"293.15 K, x2 = 0.8218",1076.6 kg/m3
same,mass density,"293.15 K, x2 = 0.8739",1025 kg/m3
same,mass density,"293.15 K, x2 = 0.9334",942.4 kg/m3
same,mass density,"298.15 K, x1 = 0.0034",797.4 kg/m3
same,mass density,"298.15 K, x1 = 0.0127",823.8 kg/m3
same,mass density,"298.15 K, x2 = 0",1297.7 kg/m3
same,mass density,"298.15 K, x2 = 0.0851",1289.8 kg/m3
same,mass density,"298.15 K, x2 = 0.1553",1282.2 kg/m3
same,mass density,"298.15 K, x2 = 0.3213",1259.6 kg/m3
same,mass density,"298.15 K, x2 = 0.519",1218.3 kg/m3
same,mass density,"298.15 K, x2 = 0.6999",1151.9 kg/m3
same,mass density,"298.15 K, x2 = 0.8218",1072.2 kg/m3
same,mass density,"298.15 K, x2 = 0.8447",1051.3 kg/m3
same,mass density,"298.15 K, x2 = 0.8739",1020.5 kg/m3
same,mass density,"298.15 K, x2 = 0.9334",937.8 kg/m3
same,mass density,"303.15 K, x1 = 0.0127",819.1 kg/m3
same,mass density,"303.15 K, x2 = 0",1293.7 kg/m3
same,mass density,"303.15 K, x2 = 0.1553",1278.2 kg/m3
same,mass density,"303.15 K, x2 = 0.3213",1255.5 kg/m3
same,mass density,"303.15 K, x2 = 0.519",1214.1 kg/m3
same,mass density,"303.15 K, x2 = 0.6999",1147.7 kg/m3
same,mass density,"303.15 K, x2 = 0.8218",1067.8 kg/m3
same,mass density,"303.15 K, x2 = 0.8447",1046.8 kg/m3
same,mass density,"303.15 K, x2 = 0.8739",1016.1 kg/m3
same,mass density,"303.15 K, x2 = 0.9334",933.3 kg/m3
same,mass density,"303.15 K, x2 = 0.9729",855.1 kg/m3
same,mass density,"313.15 K, x1 = 0.0034",783.2 kg/m3
same,mass density,"313.15 K, x1 = 0.0069",793.5 kg/m3
same,mass density,"313.15 K, x1 = 0.0127",809.6 kg/m3
same,mass density,"313.15 K, x2 = 0.0851",1277.8 kg/m3
same,mass density,"313.15 K, x2 = 0.1553",1270.2 kg/m3
same,mass density,"313.15 K, x2 = 0.519",1205.8 kg/m3
same,mass density,"313.15 K, x2 = 0.6999",1139.1 kg/m3
same,mass density,"313.15 K, x2 = 0.8218",1059 kg/m3
same,mass density,"313.15 K, x2 = 0.8447",1038 kg/m3
same,mass density,"313.15 K, x2 = 0.8739",1007.1 kg/m3
same,mass density,"313.15 K, x2 = 0.9334",924 kg/m3
same,mass density,"313.15 K, x2 = 0.9729",845.6 kg/m3
same,mass density,"333.15 K, x1 = 0.0034",763.6 kg/m3
same,mass density,"333.15 K, x2 = 0.0851",1262 kg/m3
same,mass density,"333.15 K, x2 = 0.1553",1254.3 kg/m3
same,mass density,"333.15 K, x2 = 0.3213",1231.3 kg/m3
same,mass density,"333.15 K, x2 = 0.6999",1121.9 kg/m3
same,mass density,"333.15 K, x2 = 0.8447",1019.7 kg/m3
same,mass density,"333.15 K, x2 = 0.8739",988.8 kg/m3
same,mass density,"333.15 K, x2 = 0.9729",826.2 kg/m3
same,mass density,"353.15 K, x2 = 0",1254.6 kg/m3
same,mass density,"353.15 K, x2 = 0.0851",1246.4 kg/m3
same,mass density,"353.15 K, x2 = 0.1553",1238.7 kg/m3
same,mass density,"353.15 K, x2 = 0.3213",1215.4 kg/m3
same,mass density,"353.15 K, x2 = 0.519",1172.8 kg/m3
same,mass density,"353.15 K, x2 = 0.6999",1104.8 kg/m3
same,mass density,"373.15 K, x2 = 0",1239.4 kg/m3
same,mass density,"373.15 K, x2 = 0.1553",1223.3 kg/m3
same,mass density,"373.15 K, x2 = 0.3213",1199.8 kg/m3
same,mass density,"393.15 K, x2 = 0",1224.4 kg/m3
same,mass density,"393.15 K, x2 = 0.0851",1216 kg/m3
same,mass density,"393.15 K, x2 = 0.1553",1208 kg/m3
same,mass density,"393.15 K, x2 = 0.3213",1184.1 kg/m3
same,mass density,"413.15 K, x2 = 0",1209.6 kg/m3
same,mass density,"413.15 K, x2 = 0.0851",1201 kg/m3
same,mass density,"413.15 K, x2 = 0.1553",1192.9 kg/m3
